Data as given in PubChem BioAssay AID1671194 (National Center for Advancing Translational Sciences (NCATS), 2021).
About 240 (0.17%) of roughly 140,000 compounds were called active. The inconclusive results got no clear call from the source; some entries with a clear call stand among them for comparison. Calls come from the whole dose curve; as a rule, active = well fitted inhibition curve with a large enough effect; inconclusive = small, poorly fitted or top-dose-only effect; inactive = no such curve, though single readings can be large or run the other way. Potencies beside an inconclusive call are fits to weak or partial responses and may not hold up.

experiment: Primary qHTS assay for inhibitors of alpha-synuclein gene (SNCA) expression; conditions: HEK-293 SNCA-luciferase knock-in, luminescence, 24 h; series mostly up to 57.2 µM; note: nearly all actives have a fitted effect of over 45% in size
Potency is the fitted concentration of half-maximal effect; tags give direction and shape of the fitted curve.

Potency, inconclusive:
Cc1ccc(-c2ccc(CCC(=O)O)n2-c2ccc(C(C)C)cc2)cc1 39.8 µM [inhibitor, single point]
O=C(Nc1ccccc1C(F)(F)F)N1CCCC(Cn2cnc3cccnc32)C1 (stereo not drawn) 7.08 µM [inhibitor, single point]
CCCc1nc(C)cc(N2CCC3(CC2)C(C(=O)O)CC(=O)N3C)n1 (stereo not drawn) 3.16 µM [inhibitor, full curve, poor fit]
Cc1ccc(NC(=O)/C(C#N)=C\c2ccc(Cl)cc2Cl)cc1C 39.8 µM [inhibitor, single point]
O=C(c1ccncc1)N1CCC2(CC1)CN(c1cccc(-c3ccccc3)c1)C2 39.8 µM [inhibitor, single point]
Fc1ccccc1Cn1c(-c2ccccc2)nc2ccccc21 39.8 µM [inhibitor, single point]
CC(=O)N[C@H]1[C@H](O)[C@H](O)C[C@@H]1c1ccc(C(F)(F)F)nc1 5.01 µM [inhibitor, single point]
CC(=O)c1ccc(NC(=O)COCc2cc(-c3ccco3)on2)cc1 39.8 µM [inhibitor, single point]
COc1ccc2nc(NC(=O)c3nc(S(=O)(=O)Cc4cccc(C)c4)ncc3Cl)sc2c1 39.8 µM [inhibitor, single point]
CCOc1ccccc1NC(=O)Cn1ccn(Cc2ccc(C)cc2)c(=O)c1=O 2.82 µM [inhibitor, full curve]
Cc1ccc(Cl)cc1NC(=O)C(=O)NCC(c1cccnc1)N1CCc2ccccc21 (stereo not drawn) 39.8 µM [inhibitor, single point]
CCc1ccc(C(=O)NCc2nnc3cc(-c4nc(C(C)C)no4)ccn23)cc1 1.78 µM [inhibitor, partial curve, poor fit]
CCOc1ccc(NC(=O)CSc2nc3c(oc4ccccc43)c(=O)n2CCOC)cc1 3.55 µM [inhibitor, partial curve, poor fit]

Potency, inactive:
O=C(Nc1ccc([C@@H](O)[C@H]2COCC(=O)N2Cc2ccccn2)cc1)C1CC1
C[S+](=O)([O-])N1CCN(Cc2ccccc2-c2cccnc2)CC1
CN1CCCCCCN(C(=O)CCCc2ccccc2)[C@H]2CCC[C@H]2C1=O
CC(CCc1ccccc1)NC(=O)Cn1ccn2nc3c(c2c1=O)CCCC3 (stereo not drawn)
Cc1cn2nc(C(=O)N3CCC(C)CC3)cc2c(N(C)Cc2ccccc2)n1
